Results: patent US11618753B2 (priority 2018, dated 2023)
Counter-ions that a name gives are not always drawn.

test system: MLKL phosphorylation, HT29-L23 human colorectal adenocarcinoma cells; assay: cells; conditions: read-out: pMLKL HCS Cell Assay (IC50, uM)

Q: `COc1ncc(-c2cc(C(F)(F)F)c3c(N)ncnn23)cc1C(=O)N[C@@H]1CN(C(=O)C2(C)COC2)C[C@@H]1F` [Example 329, 5-[4-amino-5-(trifluoromethyl)pyrrolo[2,1-f][1,2,4]triazin-7-yl]-N-[(3R,4S)-4-fluoro-1-(3-methyloxetane-3-carbonyl)pyrrolidin-3-yl]-2-methoxypyridine-3-carboxamide] was tested. Which IC50 did it give?
A: 0.194 µM

Q: With `COc1ncc(-c2cc(C(F)(F)F)c3c(N)ncnn23)cc1C(=O)N[C@@H]1CN(C(=O)C2(F)CCC2)C[C@@H]1F` [Example 330, 5-[4-amino-5-(trifluoromethyl)pyrrolo[2,1-f][1,2,4]triazin-7-yl]-N-[(3R,4S)-4-fluoro-1-(1-fluorocyclobutanecarbonyl)pyrrolidin-3-yl]-2-methoxypyridine-3-carboxamide] as the molecule, how does the IC50 read?
A: 0.0099 µM

Q: Which IC50 does the source give for `COc1ncc(-c2cc(C(F)(F)F)c3c(N)ncnn23)cc1C(=O)N[C@@H]1CN(C(=O)C2(F)CC2)C[C@@H]1F` [Example 331, 5-[4-amino-5-(trifluoromethyl)pyrrolo[2,1-f][1,2,4]triazin-7-yl]-N-[(3R,4S)-4-fluoro-1-(1-fluorocyclopropanecarbonyl)pyrrolidin-3-yl]-2-methoxypyridine-3-carboxamide] here?
A: 0.027 µM

Q: `COc1ncc(-c2cc(C(F)(F)F)c3c(N)ncnn23)cc1C(=O)N[C@@H]1CN(C(=O)N(C)C)C[C@@H]1F` [Example 332, 5-[4-amino-5-(trifluoromethyl)pyrrolo[2,1-f][1,2,4]triazin-7-yl]-N-[(3R,4S)-1-(dimethylcarbamoyl)-4-fluoropyrrolidin-3-yl]-2-methoxypyridine-3-carboxamide] was tested. Which IC50 did it give?
A: 0.361 µM

Q: `COc1ncc(-c2cc(C(F)(F)F)c3c(N)ncnn23)cc1C(=O)N[C@@H]1CN(C(=O)N2CCCC2)C[C@@H]1F` [Example 333, 5-[4-amino-5-(trifluoromethyl)pyrrolo[2,1-f][1,2,4]triazin-7-yl]-N-[(3R,4S)-4-fluoro-1-(pyrrolidine-1-carbonyl)pyrrolidin-3-yl]-2-methoxypyridine-3-carboxamide, TFA] was tested. Which IC50 did it give?
A: 0.039 µM

Q: How did the IC50 turn out when `COc1ncc(-c2cc(C(F)(F)F)c3c(N)ncnn23)cc1C(=O)N[C@@H]1CN(C(=O)CC(F)(F)F)C[C@@H]1F` [Example 334, 5-[4-amino-5-(trifluoromethyl)pyrrolo[2,1-f][1,2,4]triazin-7-yl]-N-[(3R,4S)-4-fluoro-1-(3,3,3-trifluoropropanoyl)pyrrolidin-3-yl]-2-methoxypyridine-3-carboxamide] was run?
A: 0.023 µM

Q: How did the IC50 turn out when `COc1ncc(-c2cc(C(F)(F)F)c3c(N)ncnn23)cc1C(=O)N[C@@H]1CN(C(=O)CC(C)C)C[C@@H]1F` [Example 335, 5-[4-amino-5-(trifluoromethyl)pyrrolo[2,1-f][1,2,4]triazin-7-yl]-N-[(3R,4S)-4-fluoro-1-(3-methylbutanoyl)pyrrolidin-3-yl]-2-methoxypyridine-3-carboxamide] was run?
A: 0.009 µM

Q: Which IC50 does the source give for `COc1ncc(-c2cc(C(F)(F)F)c3c(N)ncnn23)cc1C(=O)N[C@@H]1CN(C(=O)c2cccnc2)C[C@@H]1F` [Example 336, 5-[4-amino-5-(trifluoromethyl)pyrrolo[2,1-f][1,2,4]triazin-7-yl]-N-[(3R,4S)-4-fluoro-1-(pyridine-3-carbonyl)pyrrolidin-3-yl]-2-methoxypyridine-3-carboxamide] here?
A: 0.129 µM

Q: `COc1ncc(-c2cc(C(F)(F)F)c3c(N)ncnn23)cc1C(=O)N[C@@H]1CN(C(=O)C(C)(C)O)C[C@@H]1F` [Example 339, 5-[4-amino-5-(trifluoromethyl)pyrrolo[2,1-f][1,2,4]triazin-7-yl]-N-[(3R,4S)-4-fluoro-1-(2-hydroxy-2-methylpropanoyl)pyrrolidin-3-yl]-2-methoxy-pyridine-3-carboxamide, TFA] was tested. Which IC50 did it give?
A: 0.09 µM

Q: How did the IC50 turn out when `COCCC(=O)N1C[C@H](F)[C@H](NC(=O)c2cc(-c3cc(C(F)(F)F)c4c(N)ncnn34)cnc2OC)C1` [Example 340, 5-[4-amino-5-(trifluoromethyl)pyrrolo[2,1-f][1,2,4]triazin-7-yl]-N-[(3R,4S)-4-fluoro-1-(3-methoxypropanoyl)pyrrolidin-3-yl]-2-methoxypyridine-3-carboxamide] was run?
A: 0.217 µM

Q: Which IC50 does the source give for `COc1ncc(-c2cc(C(F)(F)F)c3c(N)ncnn23)cc1C(=O)N[C@@H]1CN(C(=O)c2cc(F)ccc2F)C[C@@H]1F` [Example 341, 5-[4-amino-5-(trifluoromethyl)pyrrolo[2,1-f][1,2,4]triazin-7-yl]-N-[(3R,4S)-(2,5-difluoro-benzoyl)-4-fluoropyrrolidin-3-yl]-2-methoxypyridine-3-carboxamide, TFA] here?
A: 0.011 µM

Q: With `COc1ncc(-c2cc(C(F)(F)F)c3c(N)ncnn23)cc1C(=O)N[C@@H]1CN(C(=O)c2cccc(F)c2)C[C@@H]1F` [Example 342, 5-[4-amino-5-(trifluoromethyl)pyrrolo[2,1-f][1,2,4]triazin-7-yl]-N-[(3R,4S)-4-fluoro-1-(3-fluorobenzoyl)pyrrolidin-3-yl]-2-methoxypyridine-3-carboxamide] as the molecule, how does the IC50 read?
A: 0.024 µM

Q: With `COc1ncc(-c2cc(C(F)(F)F)c3c(N)ncnn23)cc1C(=O)N[C@@H]1CN(C(=O)C(C)(C)c2ccccc2)C[C@@H]1F` [Example 344, 5-[4-amino-5-(trifluoromethyl)pyrrolo[2,1-f][1,2,4]triazin-7-yl]-N-[(3R,4S)-4-fluoro-1-(2-methyl-2-phenylpropanoyl)pyrrolidin-3-yl]-2-methoxypyridine-3-carboxamide] as the molecule, how does the IC50 read?
A: 0.191 µM

Q: With `COc1ncc(-c2cc(C(F)(F)F)c3c(N)ncnn23)cc1C(=O)N[C@@H]1CN(C(=O)C2COC2)C[C@@H]1F` [Example 346, 5-[4-amino-5-(trifluoromethyl)pyrrolo[2,1-f][1,2,4]triazin-7-yl]-N-[(3R,4S)-4-fluoro-1-(oxetane-3-carbonyl)pyrrolidin-3-yl]-2-methoxypyridine-3-carboxamide] as the molecule, how does the IC50 read?
A: 0.239 µM

Q: `COc1ncc(-c2cc(C(F)(F)F)c3c(N)ncnn23)cc1C(=O)N[C@@H]1CN(C(=O)C(C)(C)F)C[C@@H]1F` [Example 347, 5-[4-amino-5-(trifluoromethyl)pyrrolo [2,1-f][1,2,4]triazin-7-yl]-N-[(3R,4S)-4-fluoro-1-(2-fluoro-2-methylpropanoyl)pyrrolidin-3-yl]-2-methoxypyridine-3-carboxamide, TFA] was tested. Which IC50 did it give?
A: 0.026 µM

Q: How did the IC50 turn out when `Cc1ncc(-c2cc(C(F)(F)F)c3c(N)ncnn23)cc1C(=O)N[C@@H]1CN(C(=O)C2CC(F)(F)C2)C[C@@H]1F` [Example 350, 5-[4-amino-5-(trifluoromethyl)pyrrolo[2,1-f][1,2,4]triazin-7-yl]-N-[(3R,4S)-1-(3,3-difluoro-cyclobutanecarbonyl)-4-fluoro-pyrrolidin-3-yl]-2-methyl-pyridine-3-carboxamide] was run?
A: 0.014 µM

Q: Which IC50 does the source give for `Cc1ncc(-c2cc(C(F)(F)F)c3c(N)ncnn23)cc1C(=O)N[C@@H]1CN(C(=O)C(C)C)C[C@@H]1F` [Example 353, 5-[4-amino-5-(trifluoromethyl)pyrrolo[2,1-f][1,2,4]triazin-7-yl]-N-[(3R,4S)-4-fluoro-1-(2-methylpropanoyl)pyrrolidin-3-yl]-2-methylpyridine-3-carboxamide] here?
A: 0.058 µM

Q: How did the IC50 turn out when `Cc1ncc(-c2cc(C(F)(F)F)c3c(N)ncnn23)cc1C(=O)N[C@@H]1CN(C(=O)[C@@H](O)C(F)(F)F)C[C@@H]1F` [Example 361, 5-[4-amino-5-(trifluoromethyl)pyrrolo [2,1-f][1,2,4]triazin-7-yl]-N-[(3R,4S)-4-fluoro-1-[(2R)-3,3,3-trifluoro-2-hydroxypropanoyl]pyrrolidin-3-yl]-2-methylpyridine-3-carboxamide, TFA] was run?
A: 0.189 µM

Q: Which IC50 does the source give for `Cc1ncc(-c2cc(C(F)(F)F)c3c(N)ncnn23)cc1C(=O)N[C@@H]1CN(C(=O)C2(O)CCCC2)C[C@@H]1F` [Example 362, 5-[4-amino-5-(trifluoromethyl)pyrrolo [2,1-f][1,2,4]triazin-7-yl]-N-[(3R,4S)-4-fluoro-1-(1-hydroxycyclopentane-carbonyl)pyrrolidin-3-yl]-2-methyl-pyridine-3-carboxamide, TFA] here?
A: 0.031 µM

Q: How did the IC50 turn out when `Cc1ncc(-c2cc(C(F)(F)F)c3c(N)ncnn23)cc1C(=O)N[C@@H]1CN(C(=O)CC(C)C)C[C@@H]1F` [Example 364, 5-[4-amino-5-(trifluoromethyl)pyrrolo [2,1-f][1,2,4]triazin-7-yl]-N-[(3R,4S)-4-fluoro-1-(3-methylbutanoyl)pyrrolidin-3-yl]-2-methylpyridine-3-carboxamide, TFA] was run?
A: 0.01 µM

Q: `Cc1ncc(-c2cc(C(F)(F)F)c3c(N)ncnn23)cc1C(=O)N[C@@H]1CN(C(=O)[C@@H](O)CC(C)C)C[C@@H]1F` [Example 365, 5-[4-amino-5-(trifluoromethyl)pyrrolo [2,1-f][1,2,4]triazin-7-yl]-N-[(3R,4S)-4-fluoro-1-[(2S)-2-hydroxy-4-methyl-pentanoyl]pyrrolidin-3-yl]-2-methyl-pyridine-3-carboxamide] was tested. Which IC50 did it give?
A: 0.121 µM

Q: For `Cc1ncc(-c2cc(C(F)(F)F)c3c(N)ncnn23)cc1C(=O)N[C@@H]1CN(C(=O)[C@@](C)(O)C(F)(F)F)C[C@@H]1F` [Example 366, 5-[4-amino-5-(trifluoromethyl)pyrrolo [2,1-f][1,2,4]triazin-7-yl]-N-[(3R,4S)-4-fluoro-1-[(2R)-3,3,3-trifluoro-2-hydroxy-2-methylpropanoyl]pyrrolidin-3-yl]-2-methylpyridine-3-carboxamide], which IC50 is on record?
A: 0.018 µM

Q: With `Cc1ncc(-c2cc(C(F)(F)F)c3c(N)ncnn23)cc1C(=O)N[C@@H]1CN(C(=O)c2cc(F)ccc2F)C[C@@H]1F` [Example 367, 5-[4-amino-5-(trifluoromethyl)pyrrolo [2,1-f][1,2,4]triazin-7-yl]-N-[(3R,4S)-1-(2,5-difluorobenzoyl)-4-fluoro-pyrrolidin-3-yl]-2-methylpyridine-3-carboxamide] as the molecule, how does the IC50 read?
A: 0.0087 µM

Q: `Cc1ncc(-c2cc(C(F)(F)F)c3c(N)ncnn23)cc1C(=O)N[C@@H]1CN(C(=O)[C@H](O)CC(C)C)C[C@@H]1F` [Example 368, 5-[4-amino-5-(trifluoromethyl)pyrrolo [2,1-f][1,2,4]triazin-7-yl]-N-[(3R,4S)-4-fluoro-1-[(2R)-2-hydroxy-4-methylpentanoyl]pyrrolidin-3-yl]-2-methylpyridine-3-carboxamide] was tested. Which IC50 did it give?
A: 0.056 µM
